Data from a collection of fitness landscapes (doi:10.1126/science.1257360).
The list shows a part of the results.

B1: PhoQ; a variant is named by its letters at X, in order, P23837 (parent)
chain: MKKLLRLFFPLSLRVRFLLATAAVVLVLSLAYGMVALIGYSVSFDKTTFRLLRGESNLFYTLAKWENNKLHVELPENIDKQSPTMTLIYDENGQLLWAQRDVPWLMKMIQPDWLKSNGFHEIEADVNDTSLLLSGDHSIQQQLQEVREDDDDAEMTHSVAVNVYPATSRMPKLTIVVVDTIPVELKSSYMVWSWFIYVLSANLLLVIPLLWVAAWWSLRPIEALAKEVRELEEHNRELLNPATTRELTSLVRNLNRLLKSERERYDKYRTTLTDLTHSLKTPLXXLQXXLRSLRSEKMSVSDAEPVMLEQISRISQQIGYYLHRASMRGGTLLSRELHPVAPLLDNLTSALNKVYQRKGVNISLDISPEISFVGEQNDFVEVMGNVLDNACKYCLEFVEISARQTDEHLYIVVEDDGPGIPLSKREVIFDRGQRVDTLRPGQGVGLAVAREITEQYEGKIVAGESMLGGARMEVIFGRQHSAPKDE

Variants of: B1
Assay: enrichment ratio after two sorts for PhoP signalling (ratio (wild type AVST 3.29)); higher = more functional
Conditions: with PhoP (E. coli)

Variant	enrichment ratio
SLKP	≤ 0.25
EANW	≤ 0.25
RFVR	≤ 0.25
GHYH	≤ 0.25
ANHH	≤ 0.25
TCYL	16.2
FLGC	≤ 0.25
WPFK	≤ 0.25
TFKQ	≤ 0.25
WGNW	≤ 0.25
HVQL	≤ 0.25
AKCQ	19.1
FECK	≤ 0.25
FQMQ	4.12
NLFT	≤ 0.25
GTYV	≤ 0.25
MKRG	≤ 0.25
RASA	≤ 0.25
LVKC	≤ 0.25
VGQE	≤ 0.25
QSDK	≤ 0.25
PWWQ	≤ 0.25
SKCE	5.46
HKFL	≤ 0.25
SRQY	≤ 0.25
IRLK	≤ 0.25

Variant	enrichment ratio
SLPT	≤ 0.25
NTVY	≤ 0.25
HWMP	≤ 0.25
RTDG	≤ 0.25
LPCC	≤ 0.25
WDWQ	≤ 0.25
KGHV	≤ 0.25
NEPW	≤ 0.25
YTDN	≤ 0.25
LMMA	≤ 0.25
VCPA	≤ 0.25
TARA	≤ 0.25
YANK	≤ 0.25
YVIL	≤ 0.25
IAFK	≤ 0.25
DMRT	≤ 0.25
LISR	≤ 0.25
PFHH	≤ 0.25
HHPR	≤ 0.25
QCFT	≤ 0.25
GTML	12.6
NAHM	≤ 0.25
PRMS	≤ 0.25
MRDL	≤ 0.25
MASD	≤ 0.25
YGRW	≤ 0.25

Variant	enrichment ratio
MRLH	≤ 0.25
RAIS	≤ 0.25
GRDS	≤ 0.25
RMTC	≤ 0.25
AIFP	≤ 0.25
GSEP	≤ 0.25
VGMR	≤ 0.25
VMYR	≤ 0.25
SKVH	3.04
ATTT	5.96
QLQR	≤ 0.25
YCHW	≤ 0.25
AMVY	5.71
ETCG	≤ 0.25
KGTI	≤ 0.25
GCWK	≤ 0.25
RIHC	≤ 0.25
LWWF	≤ 0.25
TLHC	≤ 0.25
YKGA	≤ 0.25
RSID	≤ 0.25
QKLL	5.58
EYAR	≤ 0.25
WMDF	≤ 0.25
HHFW	≤ 0.25
NCDE	≤ 0.25

Variant	enrichment ratio
VFMT	≤ 0.25
LPLM	≤ 0.25
VMVH	≤ 0.25
RTMF	≤ 0.25
FQNR	≤ 0.25
NWWP	≤ 0.25
EDRA	≤ 0.25
TYSD	≤ 0.25
TANR	≤ 0.25
RSRF	≤ 0.25
WRML	≤ 0.25
QDHR	≤ 0.25
ILFF	0.321
DHPQ	≤ 0.25
QFKG	≤ 0.25
EASS	≤ 0.25
WSMY	≤ 0.25
LTNT	≤ 0.25
ASLG	18.2
DLED	≤ 0.25
WELL	≤ 0.25
HTMK	≤ 0.25
NGNI	≤ 0.25
MKLI	3.78
RDFR	≤ 0.25
GFTW	≤ 0.25

Variant	enrichment ratio
RTIN	≤ 0.25
SCKM	≤ 0.25
SPEN	≤ 0.25
QVMH	≤ 0.25
HHGQ	≤ 0.25
HFHV	≤ 0.25
YLWN	≤ 0.25
FTWE	≤ 0.25
GFNK	≤ 0.25
YDWC	≤ 0.25
TLTT	6.25
QAGM	4.7
EIPF	≤ 0.25
FMWV	≤ 0.25
YCIG	≤ 0.25
SCWF	≤ 0.25
LMQL	≤ 0.25
SPDW	≤ 0.25
HGMI	1.04
TRKS	≤ 0.25
KKMT	≤ 0.25
IIDM	≤ 0.25
IYVK	≤ 0.25
IRNE	≤ 0.25
HDME	≤ 0.25
QNAT	≤ 0.25

Variant	enrichment ratio
HFEI	≤ 0.25
PLEV	≤ 0.25
WYRD	≤ 0.25
VSFN	≤ 0.25
EGCQ	≤ 0.25
YLCA	0.507
QYFD	≤ 0.25
NHNI	≤ 0.25
DLDE	≤ 0.25
IKFC	≤ 0.25
VYEV	≤ 0.25
QMLI	≤ 0.25
VNEA	≤ 0.25
RFEI	≤ 0.25
FWYR	≤ 0.25
GKGC	≤ 0.25
SCPP	≤ 0.25
THMW	≤ 0.25
VLYE	≤ 0.25
DCCW	≤ 0.25
NFND	≤ 0.25
GLPN	≤ 0.25
MSNF	≤ 0.25
